± gives the standard deviation of the averaged measurements. The list shows a part of the results.
Tested on: PfAP2-G AP2 domain (GST-tagged)
Assay: gcPBM binding intensity (ln(normalized median fluorescence intensity)); higher = stronger DNA binding
How it was run: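 For binding intensity, the highest Masliner-normalised natural-log median intensity across replicate spots of either probe orientation was taken. Protein bound to the array was stained with Alexa488 anti-GST antibody and scanned at 488 nm. The protein, GST-tagged P. falciparum DNA-binding domains from E. coli at about 25 μg on average, had been applied for 1 h to an Agilent 4 × 180k array of primer-extended double-stranded 36-bp intergenic genomic probes and negative controls.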

| Sequence | gcPBM binding intensity (ln) |
| --- | --- |
| TACAAAAATATATAAACACACAAATATAATATATAT [CACACA_site2942] | 9.735 ± 0.078 |
| TAATAAATGACAAATTAACACACATATATTATATAT [CACACA_site9294] | 9.835 ± 0.078 |
| CGCTCTCTTTAATATTGTACATATATATTATATATA [XGTACX_site7017] | 11.1 ± 0.61 |
| TTTTTTTTTTTTTTTTGTACATAATAAATGTTCTTA [XGTACX_site6754] | 10.8 ± 0.88 |
| TGTATCTATAATAAAACACACATTTTTAATGTGCTC [CACACA_site6788] | 9.71 ± 0.071 |
| TATATATAATATTTTTCACACACCATTTCCTTAAAC [CACACA_site1341] | 10.2 ± 0.16 |
| TGTGCGGAAATAAGTGCACACATAGATATATGTATT [CACACA_site9227] | 10.4 ± 0.29 |
| TATTTTGTATTCATTTGTCACATATAATAGATAGGA [TGCATGCA_negctrl_site9] | 10.1 ± 0.18 |
| AATATATGTATATCCACACACATATATATATATATA [CACACA_site1633] | 10.1 ± 0.21 |
| ATAGATATAACATATGCATGTAAAATATAACCACTC [TGCATGCA_site60] | 10.3 ± 0.29 |
| TTATACGAAGTACGTACACACACTTATATGTTACTA [CACACA_site4019] | 11.6 ± 0.94 |
| AATAAATAGAAAGAGGTGCTACATTATATTATTTAT | 9.73 ± 0.23 |
| ACATATTTATATGTCTGTACAAATATGCAATTTTTT [XGTACX_site5516] | 10.7 ± 0.4 |
| TTAGATAGATTTGTACGTACTTATTATAACGTATCA [XGTACX_site5067] | 11.6 ± 0.75 |
| AATTTATAAATAATTAATTTGATAAATTATAAAGGG [GTGCAC_negctrl_site544] | 9.98 ± 0.16 |
| TTTTATTATATATATTGTACATATATTTTTATTTTT [XGTACX_site1564] | 11 ± 0.41 |
| AAAAAAAAAAATGGCTGTACATAATATTTAAATAGG [XGTACX_site4286] | 11.2 ± 0.67 |
| GGATAATCATACGAAGCATGCTGAATTTCCAAATAA [TGCATGCA_site1013] | 9.755 ± 0.021 |
| AAAAAAATTAAATGGGGTACAATAAGGGTCAAATAT [XGTACX_site8669] | 11.6 ± 0.93 |
| ATAATTTTTTAGATCACACATATAAATAAATAAATA [CACACA_site5175] | 9.97 ± 0.14 |
| TTATATTAGCCGATGGTGCATATATTTATAGGAAAA [GTGCAC_site9518] | 9.9 ± 0.13 |
| ATATTTATAACTTGGTGTACTTTGAAAAAAAAAAAA [XGTACX_site5194] | 11.4 ± 1 |

| Sequence | gcPBM binding intensity (ln) |
| --- | --- |
| AAAAAAAAAAAAAACACACATACATACATACATATA [CACACA_site4121] | 9.95 ± 0.14 |
| TTACATATATTGGGGTGTACATATATTTTCCTTCAC [XGTACX_site6224] | 11.4 ± 0.91 |
| AAAAAAAAAAAAAAAAGTACACATAATTGTATATGT [XGTACX_site6339] | 11.7 ± 0.75 |
| TGTAGATATTTTTGGGGTACTTTATAAAGAACTAGT [XGTACX_site5635] | 11.6 ± 0.96 |
| GTTATATGAACTTATATACACACCATTTTTGTAAAT [CACACA_site695] | 10.09 ± 0.042 |
| AAATCATATTCTTATTTTATTTTTTTTATTTTTTAT [XGTACX_negctrl_site166] | 9.55 ± 0.17 |
| GAAAAACAAATATATTAACACACAAACATATAAACA [CACACA_site9315] | 10.1 ± 0.13 |
| ATATTTTATATATTTGTGCACAATATTATAATATAT | 10.4 ± 0.2 |
| AAATATTGTTTTTTATGTACTTATTTTTATTTATTT [XGTACX_site3481] | 11.4 ± 0.79 |
| ATGAAAAAGTGCTGGATTCTAAAGAAAAAAAAAAAA [CACACA_negctrl_site962] | 10 ± 0.37 |
| ATAAAATCAACAAATCAGGATGTCACGTAAATATCA [CACACA_negctrl_site1009] | 10.1 |
| TATTTAGAAATAAATACACACATACATTTTTGTATA [CACACA_site4557] | 9.835 ± 0.007 |
| GGTATATATTCTATCACACATATTTCCATGAAAATA [CACACA_site4728] | 10.1 ± 0.17 |
| TTAATTATATTATGCACACACAATTGGAAAAAAAAT [CACACA_site1958] | 10.2 ± 0.26 |
| GTTTATTTTTTCATTTGTACACATAAATAAATATAT [XGTACX_site7752] | 11.5 ± 0.75 |
| TATACAAACTATGATGCACACATATATATATGTATA [CACACA_site8327] | 9.885 ± 0.064 |
| AAAAAAAATTTTCTTCTGTTGTATTTTTTATACGTT [GTGCAC_negctrl_site477] | 9.76 ± 0.29 |
| ACGTTAGGCTTATTTGCACACTTGTATTAAAATTTT [CACACA_site4854] | 10.5 ± 0.14 |
| AAAAATATGCTTCCATGTACTTAAAAAAAAAATTTA [XGTACX_site3617] | 11 ± 0.64 |
| TCAACTTGATTTATATGTACACATATAAGTAATTAT [XGTACX_site1798] | 11.4 ± 1 |
| AAAAAAAAGAAAAAAACACACAATGGAAAAAATGTA [CACACA_site3675] | 9.825 ± 0.049 |
| AAAAAATTAACGAGTGCACACATATTTAGATAAAAT [CACACA_site8958] | 10.5 ± 0.28 |

| Sequence | gcPBM binding intensity (ln) |
| --- | --- |
| ATATATATATATATAACACACGTGTATTTATCTGTA [CACACA_site5922] | 10.2 ± 0.15 |
| AATCTAATTAAAATCACACATATATTCGTCGTAATA [CACACA_site5855] | 9.74 ± 0.13 |
| GCACATATATATGAAACACACATGGAAACATCTCTT [CACACA_site3966] | 9.97 ± 0.085 |
| ATTCAAAAAAAATCAACACACAGTTACATAGCTCAA [CACACA_site2234] | 9.82 ± 0.028 |
| ATTCCATAAGTAAACACACAAATGCCAAAATTTTAT [CACACA_site7491] | 10.01 ± 0.085 |
| ATATATATATATATGTGTACACAAAAAATATTATAT [XGTACX_site5741] | 11.6 ± 0.83 |
| AAATATTATCAAACATAAATTATTTTTATCCGTATA [CACACA_negctrl_site771] | 9.65 ± 0.2 |
| ATGGAAAAAAAGCATTGTACATTTAAAGAAAAACAG [XGTACX_site6639] | 10.9 ± 0.28 |
| TATTATATTTGTATGTGTACTTATATGGTTGTAATA [XGTACX_site4548] | 11.4 ± 0.9 |
| AACGAAAACACTACGTGTACCAAATGTCCTGCCAAC [XGTACX_site5735] | 11 ± 0.57 |
| ATTTGTGAATATATTCGGTGAACTTTGTTAACACAT [XGTACX_negctrl_site445] | 10.1 ± 0.18 |
| ATCTCTATGATATATACACACAAATATACAAAAAAA [CACACA_site6605] | 10.01 ± 0.085 |
| AATGTATATTATTGCACACATATATAAAATTATGCT [CACACA_site1096] | 9.99 ± 0.057 |
| AAAAAAATATAGATCTGTACATATATAAATATATGT [XGTACX_site511] | 10.8 ± 0.47 |
| TCTCTAATTTTTAATACACACAAATAAATAAATAAA [CACACA_site216] | 10.1 ± 0.26 |
| ATATATGTTAATAATTGTACAAATCGATAATATATA [XGTACX_site5076] | 10.8 ± 0.34 |
| AGGCATAATTAAAAGTAACAATTATGGAAACGGAGT [GTGCAC_negctrl_site623] | 10.1 ± 0.12 |
| TTTATTTATTATTAAAGTACTAAATTATATTATTAT [XGTACX_site2565] | 10.7 ± 0.57 |
| AAAAAAAAAAAAAACACACACATGCACCTCATATTA [CACACA_site556] | 10.2 ± 0.12 |
| TAATATCCATATAAAACACACATCAAGGTTGTTAAC [CACACA_site175] | 9.955 ± 0.021 |
| ACAACATAGAGGGGCACACACATATATACATAAAAA [CACACA_site6954] | 10.7 ± 0.52 |
| AAAAAAAAAAAAAAATGTACATATAAATAAATATAT [XGTACX_site7248] | 11.3 ± 0.8 |

| Sequence | gcPBM binding intensity (ln) |
| --- | --- |
| ATGTTTTATATTATTAATATATATATATATATATAT [CACACA_negctrl_site331] | 10.2 ± 0.48 |
| GTTATATAAAAATATTGTACATTCTATATAAAGTCA [XGTACX_site4418] | 10.8 ± 0.52 |
| TATGTGCACCCATATACACACACAAATACAATGATA [CACACA_site8295] | 10.9 ± 0.96 |
| AATTCATATACAAAAAGTACAAACGAAAAATAAAAA [XGTACX_site2900] | 11.4 ± 0.94 |
| TTTTAAAAATCTATATGTACACAATACGTCTATAAA [XGTACX_site5787] | 11.4 ± 0.71 |
| TGTTTGAATAACAAAAAAAAAAAAAAAATTAAAAAA [CACACA_negctrl_site1332] | 9.44 ± 0.085 |
| ATTTTAAATGTTATGCGTACATATTAATCCTACTTA [XGTACX_site1344] | 11.5 ± 0.79 |
| AAAAAAAAAAAAAACACACAAACGCTTTTTTTTTTT [CACACA_site686] | 10.22 ± 0.071 |
| TATGAAAATGTTCATACACACATAAAAAAAAAAAAA [CACACA_site3236] | 9.97 ± 0.57 |
| TACACATACACATACACACGCATAGAAACATACGAA [CACACA_site2137] | 10.2 ± 0.32 |
| GATATGTACTAATACACACACATATAGATTTATATA [CACACA_site6610] | 11 ± 0.76 |
| TATATTTATTATAACACACACATATATATATTATAT [CACACA_site1061] | 9.905 ± 0.064 |
| TTTTAAATATGCAGATGTACATTATAATGTTTTATT [XGTACX_site2079] | 11 ± 0.54 |
| TACATATTTTTATATACACACAATAATTATTATAAA [CACACA_site1659] | 10 ± 0.13 |
| ATAAATATTGGGTGCACACACATAATATATATATAT [CACACA_site2272] | 10.7 ± 0.67 |
| AGGTTCCCAAAATGCACACCAATGAAATTATTTATT [CACACA_site553] | 10.2 ± 0.2 |
| ATAAATAAAATTAGGTGTACTTTAATTAAAGAAAAT [XGTACX_site3319] | 11.5 ± 1 |
| TATACATATATAATATGTACATATATTTTTTTTTAA [XGTACX_site2938] | 11.1 ± 0.64 |
| CATAAAAATATTTTCTGTACATATTCATATGACGTT [XGTACX_site3406] | 11.2 ± 0.7 |
| ATTTCCTGGCTACTGTGTACTGACCTCCAGACTGCT [XGTACX_site2005] | 11 ± 0.67 |
| TTTTAACTTTTATATTGTACGTTGTTTATTTTATTT [XGTACX_site7504] | 11.2 ± 0.76 |
| ATAATCATTTGGATATTCACAATATTTAAAATTAAA [CACACA_negctrl_site909] | 9.81 ± 0.099 |

Reference: the supplement of paper PMC11417369
